Experimental data as given in publication PMC6751195.
These are yes or no findings as the source states them, for the method shown. In cells and extracts the contact can be indirect. Some binding calls cover weakened binding; strength is not graded here.

Sequences of proteins named here, by UniProt entry; tags and fusion partners are left off. A change or cut given only in a name is not applied to a line headed by its entry.
UniProt Q96J87: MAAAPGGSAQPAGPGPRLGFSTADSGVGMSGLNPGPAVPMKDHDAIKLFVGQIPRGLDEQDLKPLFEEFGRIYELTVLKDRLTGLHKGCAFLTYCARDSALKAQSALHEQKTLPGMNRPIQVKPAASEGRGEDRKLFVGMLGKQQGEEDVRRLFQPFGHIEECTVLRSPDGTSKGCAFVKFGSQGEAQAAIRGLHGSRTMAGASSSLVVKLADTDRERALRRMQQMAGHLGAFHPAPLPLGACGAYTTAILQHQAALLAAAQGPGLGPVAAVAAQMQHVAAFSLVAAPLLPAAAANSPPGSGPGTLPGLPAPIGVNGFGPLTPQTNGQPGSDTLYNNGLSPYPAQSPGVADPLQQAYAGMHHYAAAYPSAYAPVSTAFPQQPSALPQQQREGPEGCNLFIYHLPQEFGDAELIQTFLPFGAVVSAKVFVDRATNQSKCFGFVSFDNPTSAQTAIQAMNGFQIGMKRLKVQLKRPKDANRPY
UniProt Q9Y297: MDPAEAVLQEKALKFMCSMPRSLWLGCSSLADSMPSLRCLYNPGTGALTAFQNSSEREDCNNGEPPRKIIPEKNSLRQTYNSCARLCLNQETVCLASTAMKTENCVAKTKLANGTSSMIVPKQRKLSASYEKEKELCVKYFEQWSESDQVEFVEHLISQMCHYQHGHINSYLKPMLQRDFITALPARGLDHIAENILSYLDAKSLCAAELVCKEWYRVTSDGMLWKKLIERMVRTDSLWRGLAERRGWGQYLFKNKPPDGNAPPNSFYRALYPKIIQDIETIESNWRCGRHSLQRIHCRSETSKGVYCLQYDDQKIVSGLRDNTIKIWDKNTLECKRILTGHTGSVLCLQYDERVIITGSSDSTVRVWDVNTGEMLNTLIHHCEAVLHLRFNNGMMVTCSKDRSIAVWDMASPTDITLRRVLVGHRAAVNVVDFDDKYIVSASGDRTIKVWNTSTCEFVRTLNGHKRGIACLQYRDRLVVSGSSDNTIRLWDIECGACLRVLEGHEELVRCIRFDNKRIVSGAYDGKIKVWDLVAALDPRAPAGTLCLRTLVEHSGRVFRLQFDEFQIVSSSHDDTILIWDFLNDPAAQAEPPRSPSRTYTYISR

Molecular target: His-CELF6 (human) (UniProt Q96J87)
Assay: co-IP; HEK293 cells co-transfected with tagged CELF6 and Flag-β-TrCP; lysis buffer 20 mM Tris, 150 mM NaCl, 1 mM EDTA, 1 mM EGTA, 1% NP-40; lysates incubated 1 h with antibody (anti-GFP, anti-His or anti-Flag) on protein G beads, washed three times with PBS/T; immunoblotting

binding	Substance
binds	Flag-β-TrCP (from UniProt Q9Y297 1-605)

Molecular target: GFP-CELF6 (human) (UniProt Q96J87)
Assay: as above

binding	Substance
binds	Flag-β-TrCP (from UniProt Q9Y297 1-605)

Molecular target: Flag-β-TrCP (UniProt Q9Y297)
Assay: as above

Substance	binding
GFP-CELF6 (from UniProt Q96J87 1-481)	binds
His-CELF6 D24A/S25A/G26A/S30A (from UniProt Q96J87 1-481)	binds
His-CELF6 NΔ35 (from UniProt Q96J87 36-481) (domain or fragment)	binds
His-CELF6 NΔ112 (from UniProt Q96J87 113-481) (domain or fragment)	binds
His-CELF6 NΔ224 (from UniProt Q96J87 225-481) (domain or fragment)	binds

The next lines start with the values.

binding	Substance
binds	His-CELF6 (from UniProt Q96J87 1-481)
no binding	His-CELF6 NΔ287 (from UniProt Q96J87 288-481) (domain or fragment)
binds	His-CELF6 S25A/S30A (from UniProt Q96J87 1-481)
binds	His-CELF6 S99A/S105A (from UniProt Q96J87 1-481)

Molecular target: Flag-β-TrCP (UniProt Q9Y297)
Assay: co-IP; HEK293 cells transfected with Flag-β-TrCP and His-CELF6; cell extracts treated with λPPase before immunoprecipitation and immunoblotting

binding	Substance
binds	His-CELF6 (from UniProt Q96J87 1-481)
